Patent US20260242371A1, “LIPID PRODRUGS OF BROM[…] USES THEREOF” (priority 2023, published 2026)

Experiment: In vitro release of 2-bromo-LSD from lipid prodrugs in human plasma supplemented with lipoprotein lipase
Conditions: 40 μM prodrug, human plasma with LPL, 0-180 minutes, 37° C.

| SMILES | % 2-Br-LSD present at end of experiment |
| --- | --- |
| CCCCCCCC/C=C\CCCCCCCC(=O)OCC(COC(=O)CCCCCCC/C=C\CCCCCCCC)OC(=O)CC(C)CCCCCCCCC(=O)OCn1c(Br)c2c3c(cccc31)C1=C[C@@H](C(=O)N(CC)CC)CN(C)[C@@H]1C2 (stereo partly shown) [Compound I-6, 2BL-ASI-C12bMe-2-TG-oleate] | ++ (++ representing a percentage release of 2-bromo-LSD between 5-25%) |
| CCCCCCCC/C=C\CCCCCCCC(=O)OCC(COC(=O)CCCCCCC/C=C\CCCCCCCC)OC(=O)CC(C)CCCCC(=O)OCn1c(Br)c2c3c(cccc31)C1=C[C@@H](C(=O)N(CC)CC)CN(C)[C@@H]1C2 (stereo partly shown) [Compound I-5, 2BL-ASI-C8bMe-2-TG-oleate] | ++ (++ representing a percentage release of 2-bromo-LSD between 5-25%) |
| CCCCCCCC/C=C\CCCCCCCC(=O)OCC(COC(=O)CCCCCCC/C=C\CCCCCCCC)OC(=O)CC(C)CCCCCCC(C)CC(=O)n1c(Br)c2c3c(cccc31)C1=C[C@@H](C(=O)N(CC)CC)CN(C)[C@@H]1C2 (stereo partly shown) [Compound I-3, 2BL-C12b′bMe-2-TG-oleate] | ++ (++ representing a percentage release of 2-bromo-LSD between 5-25%) |
| CCCCCCCC(=O)OCC(COC(=O)CCCCCCC)OC(=O)CC(C)(C)CC(=O)OCn1c(Br)c2c3c(cccc31)C1=C[C@@H](C(=O)N(CC)CC)CN(C)[C@@H]1C2 [Compound I-28, 2BL-ASI-C5bbGMe-2-TG-octanoate] | ++ (++ representing a percentage release of 2-bromo-LSD between 5-25%) |
